{"source": "PubChem BioAssay AID624417", "about": "(National Center for Advancing Translational Sciences (NCATS), 2012)", "note": "Values joined by “and” are separate entries in the source; they are usually repeats but may differ in a detail not shown here. Identical values can stand only once. About 6,400 (1.6%) of roughly 410,000 compounds were called active. Inconclusive results, whose numbers are uncertain, are shown with a selection of clear calls. The call rests on the fitted dose curve; in most records, active means well fitted inhibition curve with a large enough effect; inconclusive means small, poorly fitted or top-dose-only effect; inactive means no such curve, though single readings can be large or run the other way. Potencies of inconclusive entries are doubtful fits and often do not repeat. Potency means the concentration at half of the fitted maximal effect; tags describe the fitted curve by direction and shape.", "data": [{"molecular_target": "Glucagon-like peptide 1 receptor (Homo sapiens) (UniProt P43220)", "sequence (P43220 whole entry, looked up)": "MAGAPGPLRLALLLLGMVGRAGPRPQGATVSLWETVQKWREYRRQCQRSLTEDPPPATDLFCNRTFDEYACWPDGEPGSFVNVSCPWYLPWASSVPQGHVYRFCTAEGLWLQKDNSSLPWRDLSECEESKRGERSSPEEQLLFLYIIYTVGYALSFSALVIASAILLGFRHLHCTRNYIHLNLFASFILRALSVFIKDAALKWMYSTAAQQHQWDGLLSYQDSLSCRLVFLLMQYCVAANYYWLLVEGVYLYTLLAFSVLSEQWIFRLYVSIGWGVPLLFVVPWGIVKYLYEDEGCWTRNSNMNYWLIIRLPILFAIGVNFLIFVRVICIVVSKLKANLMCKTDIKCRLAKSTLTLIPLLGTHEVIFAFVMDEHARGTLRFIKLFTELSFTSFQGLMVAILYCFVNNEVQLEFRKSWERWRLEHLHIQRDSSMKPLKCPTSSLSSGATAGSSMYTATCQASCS", "test": "qHTS of GLP-1 Receptor Inverse Agonists (Inhibition Mode); further: nearly all actives have a fitted effect of over 55% in size", "details": "HEK293 GLP-1R CRE-luciferase, luminescence, 24 h, GLP-1R form is constitutively active; series mostly up to 38.3 µM", "method_in_brief": "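HEK293 cells stably co-expressing a cAMP-responsive luciferase reporter and constitutively active GLP-1R were seeded, incubated 12 h, then exposed to compounds for 24 h at 37 C. Luminescence was read 12 min after detection reagent; inverse agonists lower signal.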", "values": [{"smiles": "COc1cccc(Cn2cnc3c(NS(=O)(=O)c4cccc(Cl)c4Cl)c(C)c(C)cc32)c1", "Potency": "inconclusive: 10 µM [inhibitor, partial curve, poor fit]"}, {"smiles": "C=CCN(CC(=O)Nc1c(C)cccc1CC)C(=O)SCCC", "Potency": "inconclusive: 22.4 µM [inhibitor, single point]"}, {"smiles": "C/C(CC(=O)Nc1ccc(Cl)c(C(F)(F)F)c1)=N\\NC(=O)c1cccc(O)c1", "Potency": "inconclusive: 28.2 µM [inhibitor, single point]"}, {"smiles": "COc1ccc(C(=O)NCCSCc2ccccc2Cl)cc1OC", "Potency": "inactive"}, {"smiles": "CCCCn1cnc2c(SCc3cccc(F)c3)nc(N)nc21", "Potency": "inactive"}, {"smiles": "CC(C)n1cnc2c(NCc3ccccc3)cc(Cc3ccc(F)cc3)cc21", "Potency": "inconclusive: 8.91 µM [inhibitor, partial curve, poor fit]"}, {"smiles": "CCOC(=O)c1ccc(NC(=O)CN2C(=O)C3C4C=CC(C4)C3C2=O)cc1", "note": "(centres undefined)", "Potency": "inconclusive: 5.01 µM [inhibitor, partial curve]"}, {"smiles": "COc1ccc(N2CCN(C(=O)CSc3c4c(nc5ccc(Cl)cc35)CCCC4)CC2)cc1", "Potency": "inconclusive: 0.794 µM [inhibitor, full curve, poor fit]"}, {"smiles": "Cc1ccc(SC(=O)COc2ccccc2C)cc1", "Potency": "inconclusive: 15.8 µM [inhibitor, single point]"}, {"smiles": "CN(c1ccccc1)C(c1ccc(F)cc1)c1nnnn1C1CCCC1", "note": "(centres undefined)", "Potency": "inconclusive: 10 µM [inhibitor, partial curve, poor fit]"}, {"smiles": "Cc1ccsc1/C=N\\NC(=O)Cn1nnc2ccccc21", "Potency": "inconclusive: 5.62 µM [inhibitor, partial curve, poor fit]"}, {"smiles": "CC(=O)n1nc(-c2ccco2)nc1SCc1ccccc1", "Potency": "inactive"}, {"smiles": "Cc1ccc(/C=N/Nc2ccc(F)cc2)s1", "Potency": "inconclusive: 14.1 µM [inhibitor, single point]"}, {"smiles": "CCn1nc(NS(=O)(=O)c2ccc(F)cc2)c2cc3cccc(C)c3nc21", "Potency": "active: 10 µM"}, {"smiles": "CCN1C(=O)[C@H]2[C@@H](c3ccc(-c4ccc(OC)cc4)cc3)N3CCCC[C@@]3(C(=O)OC)[C@H]2C1=O", "Potency": "inconclusive: 6.31 µM [inhibitor, partial curve, poor fit]"}, {"smiles": "CCN(CC)CCOC(=O)C(Cc1cccc2ccccc12)CC1CCCO1", "note": "(centres undefined)", "Potency": "inconclusive: 28.2 µM [inhibitor, single point]"}, {"smiles": "CCCCOc1ccc(C(=O)NCCc2sc(-c3ccc(OC)c(OC)c3)nc2C)cc1", "Potency": "inconclusive: 10 µM [inhibitor, partial curve]"}, {"smiles": "COC(=O)C(Cc1ccccc1)NCC(=O)Nc1cccc(Cl)c1C", "note": "(centres undefined)", "Potency": "inconclusive: 12.6 µM [inhibitor, single point]"}, {"smiles": "CCOc1ccc(CNC(=O)c2ccc3c(c2)N(CC)CCS3)cc1", "Potency": "inconclusive: 28.2 µM [inhibitor, single point] and inconclusive: 12.6 µM [inhibitor, single point]"}, {"smiles": "COc1ccccc1C(=O)NC(CCSC)C(=O)OC(C)C(N)=O", "note": "(centres undefined)", "Potency": "inactive"}, {"smiles": "CCOC(=O)C1=C[C@@H](C(C)(C)C)N(S(=O)(=O)c2ccc(C)cc2)[C@H]1c1cccc2ccccc12", "Potency": "inconclusive: 25.1 µM [inhibitor, single point]"}, {"smiles": "COc1ccc(CNc2ccc(-c3ccccc3OC)nn2)cc1", "Potency": "inconclusive: 22.4 µM [inhibitor, single point]"}, {"smiles": "Cc1oc(-c2ccccc2F)nc1CSCC(=O)N1CCN(c2ccccc2)CC1", "Potency": "inconclusive: 17.8 µM [inhibitor, partial curve, poor fit]"}, {"smiles": "Cc1cccc(N2CCN(S(=O)(=O)c3ccc4c(c3)C(C(C)C)C(=O)N4)CC2)c1C", "note": "(centres undefined)", "Potency": "inconclusive: 10 µM [inhibitor, partial curve, poor fit]"}, {"smiles": "Cc1ccc(CNC(=O)Cn2c(=O)c3sccc3n(Cc3ccc([N+](=O)[O-])cc3)c2=O)cc1", "Potency": "inconclusive: 28.2 µM [inhibitor, single point]"}, {"smiles": "O=c1c2ccccc2nc(SCc2cccc(F)c2)n1Cc1ccco1", "Potency": "inconclusive: 10 µM [inhibitor, partial curve, poor fit]"}, {"smiles": "Cc1ccc(Cc2c(C)nc3nc(SCC(=O)NCCCN4CCCCCC4)nn3c2C)cc1", "Potency": "inconclusive: 10 µM [inhibitor, partial curve, poor fit]"}, {"smiles": "COc1ccc(NC(=O)CN2C(=O)NC(c3ccccc3)(c3ccccc3)C2=O)cc1OC", "Potency": "inconclusive: 28.2 µM [inhibitor, single point]"}, {"smiles": "Cc1ccc(C(=O)NC2CCCc3ccccc32)cc1[N+](=O)[O-]", "note": "(centres undefined)", "Potency": "inconclusive: 28.2 µM [inhibitor, single point]"}, {"smiles": "COCCNC(=O)C1(C)CCCN(C(=O)c2cccc3ccccc23)C1", "note": "(centres undefined)", "Potency": "inconclusive: 25.1 µM [inhibitor, single point]"}, {"smiles": "CN(C)c1ccc(C=NN2C(=O)CSC2=S)c(Cl)c1", "Potency": "inconclusive: 28.2 µM [inhibitor, single point]"}, {"smiles": "COc1cccc(-n2c(SCC(=O)NCc3cccs3)nc3ccccc3c2=O)c1", "Potency": "inconclusive: 2.24 µM [inhibitor, full curve]"}, {"smiles": "CC(N)c1csc(Nc2ccc(C(=O)c3ccccc3)cc2)n1", "note": "(centres undefined)", "Potency": "inconclusive: 28.2 µM [inhibitor, single point]"}, {"smiles": "CC1CCc2c(sc3ncn(N)c(=N)c23)C1", "note": "(centres undefined)", "Potency": "inconclusive: 10 µM [inhibitor, partial curve, poor fit]"}, {"smiles": "CCOc1ccc(CCNC(=O)Cn2c(-c3cccs3)cc3cc(F)ccc32)cc1OCC", "Potency": "inconclusive: 6.31 µM [inhibitor, partial curve, poor fit]"}, {"smiles": "Cc1cc(-n2c(C)cc(C(=O)COc3ccc4ccc(=O)oc4c3)c2C)no1", "Potency": "inconclusive: 11.2 µM [inhibitor, single point]"}, {"smiles": "CCOc1ccc2c(c1)C(N(CCN1CCOCC1)C(=O)Nc1ccc(OC)cc1OC)CC(C)(C)O2", "note": "(centres undefined)", "Potency": "inconclusive: 10 µM [inhibitor, partial curve]"}, {"smiles": "O=C(NCCN1CCOCC1)N1c2ccccc2Sc2ccccc21", "Potency": "inactive"}, {"smiles": "CCc1ccc(CN(Cc2ccco2)c2cnc(S(C)(=O)=O)nc2C(=O)Nc2c(C)cccc2C)cc1", "Potency": "inconclusive: 11.2 µM [inhibitor, single point]"}]}]}
